# Reference: the supplement of paper PMC8728848
# The list shows a part of the results.
# Legend:
# [1] = target: Neu5Gc(a2-8)Neu5Gc(a2-6)Gal(b1-4)GlcNAc; assay: glycan array binding signal (z-score within array); higher = stronger binding; conditions: glycan notation: IUPAC condensed, linker removed
# How it was run: (§1)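 The binding signal is a Z-score computed within each array. Data were drawn from 3228 arrays in the Consortium for Functional Glycomics database, restricted to those with a known protein sequence. Scores were averaged over arrays of the same protein sequence at different concentrations or buffers, and over linkers, and negative values can be taken as non-binding.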
# [2] = target: Neu5Gc(b2-6)Gal(b1-4)GlcNAc; assay: as above; conditions: glycan notation: IUPAC condensed, linker removed
# How it was run: as §1
binder,measurement,setting,value
PfulAvr4 (Pseudocercospora fuligena) (protein) HHHHHHDYKDDDDKTYVQDKTPAFVCPAADIKTTKCLGPKDCLYPSPKTCNGYIQCSPADDSYLTGIIHEMPCPSGLLWNDNKKWCDWPENTTCGLVKSAGATEVDATKQGPTPGKYHG,glycan array binding signal (z-score),[1],-0.134
same,glycan array binding signal (z-score),[2],-0.053
